Measured values published in PubChem BioAssay AID651820 (National Center for Advancing Translational Sciences (NCATS), 2012).
Out of some 340,000 compounds screened, about 12,000 (3.5%) were called active. The inconclusive results got no clear call from the source; some entries with a clear call stand among them for comparison. The call rests on the fitted dose curve; in most records, active means well fitted inhibition curve with a large enough effect; inconclusive means small, poorly fitted or top-dose-only effect, or another doubt; inactive means no such curve, though single readings can be large or run the other way. Potencies of inconclusive entries are left out as doubtful fits.

assay: qHTS Assay for Inhibitors of Hepatitis C Virus (HCV); conditions: Huh7.5.1 HCVcc-Cre (HCVcc is cell-culture hepatitis C virus) infection, luciferase reporter, 44 h; series mostly up to 41.8 µM
In short: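 After 44 h co-culture of compound, cells and HCVcc-Cre (~0.5 moi), substrate is added for 15 min at room temperature and luciferase measured over 15 sec. Cells were seeded at 1,000/well and pre-cultured 4 h.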
Potency means the concentration at half of the fitted maximal effect; tags describe the fitted curve by direction and shape.

SMILES	Potency
CCOCC(=O)Nc1nnc(COC)s1	inactive
Cc1ccc(-c2c[n+](Cc3cccc(Cl)c3)c3n2CCC3)cc1	inactive
Cc1csc(NC(=O)c2oc3ccccc3c2C)n1	inconclusive [inhibitor, single point]
Cc1c(OCC(=O)NC2CC(C)(C)NC(C)(C)C2)ccc2c1oc(=O)c1ccccc12	active: 2 µM
Cc1cc(S(=O)(=O)NC2CC(C)(C)NC(C)(C)C2)c(Cl)cc1Cl	inconclusive [inhibitor, single point]
COc1ccc(CNC(=O)CCCCCNc2nc(=S)[nH]c3ccccc23)cc1	inconclusive [inhibitor, full curve]
CCCn1c(CCC(=O)O)ccc1-c1ccc(F)cc1	inactive
OC1(C#CCN2CCCC2)CCCCC1	inactive
O=S(=O)(c1ccccc1)N1CCN(c2ncnc3sc(-c4ccccc4)cc23)CC1	inactive
Clc1ccccc1C1=CC(c2ccco2)n2ncnc2N1 (configuration not stated)	inactive
O=C(CC1S/C(=N/N=C/c2c[nH]c3ccc(OCc4ccccc4)cc23)NC1=O)Nc1ccccc1 (configuration not stated)	inactive
COc1ccc(NC(=O)CN(C)C(=O)CCCN2C(=O)c3cccc4cccc(c34)C2=O)cc1	inconclusive [inhibitor, single point]
Cc1ccc(NC(=O)c2nnn(-c3cc(C)cc(C)c3)c2N)cc1	inconclusive [inhibitor, partial curve]
Cc1ccc(NC(=O)CCSCCc2ccccn2)cc1	inactive
CCC(=O)Nc1c(OC(=O)CC)ccc2c(C)cc(=O)oc12	inactive
COc1ccc(NC(=O)c2ccc(Cn3cc(Cl)cn3)cc2)cc1	inactive
COc1ccccc1CNC(=O)CC(NS(=O)(=O)c1ccc(C)cc1)c1ccco1 (configuration not stated)	inconclusive [inhibitor, single point]
CN(N=Nc1ccc([N+](=O)[O-])cc1)c1ccccc1	inactive
CC(NC(=O)Nc1ccccn1)N1C(=O)C2C3C=CC(C3)C2C1=O (configuration not stated)	inactive
COc1cc(/C=C2\C(=O)ON=C2c2ccccc2)cc(OC)c1OC	inactive
CC(C)(C)C(=O)NC(=S)N1CCCC1	inactive
Cc1ccc(C2(C)NC(=O)N(CC(=O)Nc3ccc(Cl)c(S(=O)(=O)N4CCCCC4)c3)C2=O)cc1 (configuration not stated)	inconclusive [inhibitor, partial curve]
CCN1CCN(C(c2cc3cccc(C)c3[nH]c2=O)c2nnnn2Cc2ccccc2)CC1 (configuration not stated)	inactive
C=CCC[C@@H](Cc1ccc(F)cc1)C(=O)OC[C@H](C)NC(=O)[C@H](CC=C)CC(=O)N(CCO)Cc1ccccc1	inconclusive [inhibitor, partial curve]
COc1ccc(CNc2nc3c(c(=O)n(Cc4ccc(Cl)cc4)c(=O)n3C)n2C)cc1	inconclusive [inhibitor, single point]
CCCCCc1ccc(OCCC[n+]2ccccc2)c(CCCCC)c1	active: 10 µM

SMILES	Potency
CCCCNC(=O)c1c(C)cc(=O)oc1C	inactive
CC(C)CN(C(=O)CSc1nc2ccccc2o1)c1c(N)n(Cc2ccccc2)c(=O)[nH]c1=O	inactive
CC(=O)c1ccc(N2CCN(C(=O)Cn3cnc(S(=O)(=O)N4CCCCC4)c3)CC2)cc1	inactive
COc1cc(NC(=O)c2cccs2)c(C(=O)OCC(=O)NCc2ccco2)cc1OC	inconclusive [inhibitor, partial curve]
Cc1ccc2[nH]cc(C(=O)NCc3cccs3)c(=O)c2c1	active: 10 µM
Cc1nc(-c2ccc([N+](=O)[O-])cc2)c(-c2ccccc2)o1	inconclusive [inhibitor, single point]
CCCCn1c(=O)c(C(=O)Nc2ccccc2)c(O)c2ccccc21	inconclusive [inhibitor, single point]
COc1ccccc1CNC(=O)CSC1=NCCS1	inactive
Cc1ccc(-n2cccn2)c(CN2CCCC(C(=O)c3sccc3C)C2)c1 (configuration not stated)	inconclusive [inhibitor, single point]
CCn1c(SCc2ccc(C(=O)Nc3cc(C)cc(C)c3)cc2)nnc1-c1ccncc1	active: 11.2 µM
c1ccc(-n2cnc3cc(NCc4ccco4)ccc32)cc1	inconclusive [inhibitor, single point]
COc1cc(OC)c(C(=O)Nc2ccc(S(=O)(=O)N3CCCCC3)cc2)cc1OC	inactive
CCOC(=O)C1=C(CSc2nc(CC)c(C)cc2C#N)OC(N)=C(C#N)C1c1ccc(OC)cc1 (configuration not stated)	inconclusive [inhibitor, single point]
CN(C)CCCN(C(=O)/C=C/c1cccs1)c1nc2c(F)cccc2s1	inconclusive [inhibitor, single point]
N#Cc1ccc(Cn2cc(C(=O)c3ccco3)c3ccccc32)cc1	inconclusive [inhibitor, single point]
c1ccc(Cn2c(CNc3nc4ccccc4n3CCN3CCCCC3)nc3ccccc32)cc1	active: 11.2 µM
Cc1ccc2c(c1)cc(CN(Cc1cccs1)C(=O)c1ccco1)c1nnnn12	inconclusive [inhibitor, single point]
CCOC(=O)c1cnn(-c2ccccc2)c1-n1cccc1C(=O)C(=O)Nc1ccccc1C(F)(F)F	inconclusive [inhibitor, partial curve]
CC(CCN(C)C)OC(=O)c1ccc(C(C)c2ccccc2)o1 (configuration not stated)	inactive
O=C(CCN1C(=O)/C(=C/c2ccccc2Cl)SC1=S)N1CCCC1	inconclusive [inhibitor, partial curve]
O=C(Nc1cnn(Cc2ccc(F)cc2)c1)c1cc2nc(-c3ccco3)cc(C(F)(F)F)n2n1	inconclusive [inhibitor, full curve, poor fit]
Clc1ccc(-c2noc(CN3CCOCC3)n2)cc1	inactive
O=C(c1ccc(F)cc1)[C@@H]1[C@@H](C(=O)c2ccccc2)[C@@]2(C(=O)Nc3ccccc32)[C@H]2c3ccccc3C=CN12	inactive
Cc1ccc(-c2csc(NC(=O)c3ccc(F)cc3)c2C(=O)O)cc1	inactive
Cn1cnc([N+](=O)[O-])c1S(=O)(=O)Nc1ccccc1	inconclusive [inhibitor, single point]
CCOC(=O)c1[nH]c(C)c(CC(C)C)c1C	inconclusive [inhibitor, single point]

SMILES	Potency
O=C(CNC(=O)c1cccc(-n2cnnn2)c1)Nc1ccc(F)c(F)c1	inconclusive [inhibitor, single point]
Cc1ccc2c(CC(=O)NC3=NCCS3)coc2c1	inactive
Cc1ccc(NC(=S)N(CCN(C)C)Cc2cccs2)c(C)c1	inactive
O=C(CSc1nnc(-c2c[nH]c3ccccc23)o1)N1CCCCC1	inactive
OC(COCc1ccccc1)CN1CCCC1 (configuration not stated)	inactive
COc1ccc(C(=O)NCC(c2ccccc2)c2ccccc2)cc1S(=O)(=O)N1CCOCC1	inactive
N#Cc1ccc(CN2CCN(C(=O)CNC(=O)Cc3cccc4ccccc34)CC2)cc1	inconclusive [inhibitor, partial curve]
O=C(NC1=C(Nc2ccc(Cl)cc2)C(=O)c2ccccc2C1=O)c1ccccc1	inconclusive [inhibitor, single point]
Cc1ccc(N(Cc2ccccc2)C(=O)c2ccc(C)c(S(=O)(=O)N3CCOCC3)c2)cc1	active: 31.6 µM
CC(C)N(C(=O)[C@H]1C[C@H](CC(=O)NC(C)(C)C)C(=O)N2CCc3c([nH]c4ccc(Cl)cc34)[C@]12C)C(C)C	inconclusive [inhibitor, partial curve]
O=C(c1cnccn1)N1CCN(S(=O)(=O)c2ccc3ccccc3c2)CC1	inactive
Cc1sc(NC(=O)Cn2c(=O)oc3ccccc32)nc1-c1ccc(Cl)cc1	inconclusive [inhibitor, partial curve]
Cc1ccc(C)c(NC(=O)c2cc([N+](=O)[O-])cc([N+](=O)[O-])c2)c1	inconclusive [inhibitor, single point]
CCOC(=O)N/N=C/c1ccc(N(CC)CC)cc1O	active: 3.55 µM
CCOc1ccc2oc(C(=O)NCC(c3ccco3)N(C)C)c(C)c2c1 (configuration not stated)	inconclusive [inhibitor, single point]
Cc1cc(N2CCN(c3ccccn3)CC2)n2c(nc3ccccc32)c1C#N	inconclusive [inhibitor, single point]
Cc1ccc(C)c(OCc2ccc(C(=O)Nc3ccc([N+](=O)[O-])cn3)o2)c1	active: 2.51 µM
NC(=O)c1cc2cc(Cl)ccc2o/c1=N/NC(=O)c1cccs1	inactive
COCCCNC(=O)c1cc(-c2cccnc2)nc2ccccc12	inactive
CC1(C(=O)N/N=C/c2cc3c(cc2Br)OCO3)CC1(Br)Br (configuration not stated)	inconclusive [inhibitor, single point]
O=C(CSc1nnnn1C1CCCCC1)NNC(=O)c1ccco1	inactive
COc1ccccc1CC(=O)Nc1cccc(S(=O)(=O)N2CCOCC2)c1	inconclusive [inhibitor, single point]
COc1cc(NC(=O)c2c(OC)cccc2OC)ccc1NC(=O)c1cc2ccccc2o1	active: 25.1 µM
COc1cc(OC)cc(C(=O)N2CC(=O)Nc3ccccc32)c1	inactive
COc1cc(-c2nc3cnccn3c2NC(C)(C)CC(C)(C)C)ccc1O	inconclusive [inhibitor, single point]
